Results reported in PubChem BioAssay (NCATS).
Inconclusive results, whose numbers are uncertain, are shown with a selection of clear calls. Active and inactive are the calls of the source. Calls come from the whole dose curve; as a rule, active = well fitted curve in either direction with a large enough effect (not every such curve was filed as active); inconclusive = small, poorly fitted or top-dose-only effect, or another doubt; inactive = flat fitted curve, though single readings scatter.

Assay: NFAT Signaling Pathway (AID 444);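 note: carbachol stimulus at about its EC50 of 1 µM final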
Settings: Jurkat NFAT-bla M1, carbachol, beta-lactamase ratio, 5 h; at 17.2 µM (top of the series) unless noted
Method in brief: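 Read-out: CCF4 FRET ratio (460 nm/530 nm) after 1 h RT dye loading, used for %activity and AC50 from titration series. Cells: Jurkat NFAT-β-lactamase/M1 line, treated with compound plus 1 uM carbachol for 5 h, 37 °C.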
% is set by controls: 0 for no effect and ±100 for the full control effect.

Compound	activity change, negative = inhibition
O=C(NCCOCCOCCNC(=O)c1cccnc1)c1cccnc1	inactive: -1.99%
Cn1ccnc1C(O)c1ccc(OCc2ccccc2)cc1 (stereo not given)	inconclusive: -42.5% [inhibitor]
C/C(NC(=O)c1ccccc1F)=C1\C(=O)C[C@@H]2[C@H]1C2(C)C	inactive: -24.9%
O=C(CCN1CCc2ccccc21)c1ccc2c(c1)OCCO2	inactive: -15.2%
c1ccc(C(CCN2CC3CCC(CC3)C2)c2ccccc2)cc1	active: -81.8% [at 7.69 µM]
COCCn1c(=O)c(-c2ccccc2)nc2cnc(N3CCOCC3)nc21	inactive: 18.3% [at 7.69 µM]
N=C(N)SC(c1ccccc1)c1ccccc1	inconclusive: -33.1% [inhibitor] [at 7.69 µM]
COc1ccc(Cn2c(N)c(C#N)c3nc4ccccc4nc32)cc1OC	inconclusive: 34.8% [activator]
N#CC1=C2SCC(O)(c3ccccc3)N2C(=O)CC1c1ccccc1 (stereo not given)	inconclusive: -70.5% [inhibitor]
Cc1nccn1-c1cc(C(C)C)c(C#N)c2nc3ccccc3n12	inactive: -0.783%
CCON=C1C(C)(C)C(C)(C)C(C)(C)C1(C)C	inactive: 6.28% [at 7.69 µM]
COc1ccc(C(=O)N2CCC3(CCCN(c4ccncc4)C3)CC2)cc1	inconclusive: -60.3% [inhibitor] [at 7.69 µM]
CCOC(=O)c1nc2nc(C)c(Cl)c(=O)n2[nH]1	inconclusive: 4.15% [inhibitor]
CC(=O)N1CCC2(CC1)CN(Cc1ccccc1)C2	inactive: 0.306% [at 7.69 µM]
NC(N)=NC(N)=Nc1ccc(C(=O)O)cc1	inactive: 6.33% [at 7.69 µM]
COC(=O)c1cc(=O)n2c(-c3ccc(OC)cc3)csc2n1	inconclusive: -4.37% [inhibitor]
CC(C)Cc1nc(N2CCN(C(=O)Cc3ccccc3)CC2)c(C#N)c2c1COC(C)(C)C2	inconclusive: -49.1% [inhibitor]
CCN(CC)CCOC(=O)C1(c2ccc(OC)c(OC)c2)CCCC1	active: -82.2%
CCCCOc1ccc(C(=O)OC2CC(C)N(C)CC2C)cc1 (stereo not given)	inconclusive: -78.3% [inhibitor]
COc1ccc(N2C(=O)CC(N(Cc3ccc(S(N)(=O)=O)cc3)C(C)=O)C2=O)cc1 (stereo not given)	inactive: -2.46%

Compound	activity change, negative = inhibition
COc1ncc2nc(C)c(=O)n(-c3ccccc3)c2n1	inactive: 2.66% [at 7.69 µM]
CCCCc1c(C)nn(-c2nnc3c4ccccc4n(C)c3n2)c1C	inactive: -28.4%
CCOC(=O)c1c(SC)nc(SC)c2c1CCC2	inconclusive: -35.5% [inhibitor]
CS(=O)(=O)N1CCC2(CCCN(Cc3ccccc3)C2)CC1	inconclusive: -42.9% [inhibitor] [at 7.69 µM]
CCOC(=O)c1ccc(N2C(=O)CC(Sc3nnc(C)s3)C2=O)cc1 (stereo not given)	inconclusive: -83.5% [inhibitor]
COc1ccccc1CN1CCCC2(CCN(C(=O)c3cccc(F)c3)CC2)C1	inconclusive: -66.1% [inhibitor] [at 7.69 µM]
c1cc(NNc2cccc(-c3nn[nH]n3)c2)cc(-c2nn[nH]n2)c1	inactive: 2.46% [at 7.69 µM]
CC(C)c1nc2sc3c(c2c(=O)o1)CCCC3	inconclusive: -63.5% [inhibitor]
C=CCNc1sc(C(=O)C2CC2)c(N)c1C#N	inactive: 4.81%
Fc1ccc2[nH]c3c(N4CCN(C5CCCCC5)CC4)ncnc3c2c1	inconclusive: -43.2% [inhibitor]
CCOC(=O)CSc1nc(N)c(C#N)c(-c2ccc(OC)cc2)c1C#N	inactive: 2.57%
CC(C)c1nc(NCCN2CCOCC2)c(C#N)c2c1COC(C)(C)C2	inconclusive: -33.4% [inhibitor]
Cc1c(OCc2ccccc2)c(=O)ccn1Cc1ccccc1	inactive: -0.234%
O=C(O)C(O)c1ccco1 (stereo not given)	inactive: -2.98%
COc1ccccc1C1/C(=C(/O)c2ccc(C)cc2)C(=O)C(=O)N1CCN1CCOCC1 (stereo not given)	inactive: 19.8%
CN(C)Cc1ccccc1-c1cncnc1NCc1cccnc1	inconclusive: -38.9% [inhibitor] [at 7.69 µM]
CC(C)COc1ccc(C(=O)OCCN2CCOCC2)c(O)c1	inconclusive: -32% [inhibitor]
Cc1nc(Nc2ncc3c(n2)CCCC3=O)nc2ccccc12	inactive: 19.8%
CN(C)CCO[C@@H](c1ccc(Cl)cc1)c1ccccn1	inconclusive: -70.2% [inhibitor]
Cc1cccc(OCC(=O)N2CCC(N3CCCCCC3)CC2)c1	inconclusive: -50.8% [inhibitor]
